In the supplement of paper PMC3334620:
Over roughly 33,000 sequences, “E-score (-0.5 to 0.5)” has its median near -0.043; the highest 2% begin near 0.37. Some of the results follow.

molecular target: T1, Upc2 (UniProt Q12151); assay: PBM E-score (8-mer binding enrichment) (E-score (-0.5 to 0.5)); higher = stronger / more preferred TF binding; most listed sequences are background and not binding sites; conditions: protein concentration: 200 nM; construct: GST-full length
T1 sequence: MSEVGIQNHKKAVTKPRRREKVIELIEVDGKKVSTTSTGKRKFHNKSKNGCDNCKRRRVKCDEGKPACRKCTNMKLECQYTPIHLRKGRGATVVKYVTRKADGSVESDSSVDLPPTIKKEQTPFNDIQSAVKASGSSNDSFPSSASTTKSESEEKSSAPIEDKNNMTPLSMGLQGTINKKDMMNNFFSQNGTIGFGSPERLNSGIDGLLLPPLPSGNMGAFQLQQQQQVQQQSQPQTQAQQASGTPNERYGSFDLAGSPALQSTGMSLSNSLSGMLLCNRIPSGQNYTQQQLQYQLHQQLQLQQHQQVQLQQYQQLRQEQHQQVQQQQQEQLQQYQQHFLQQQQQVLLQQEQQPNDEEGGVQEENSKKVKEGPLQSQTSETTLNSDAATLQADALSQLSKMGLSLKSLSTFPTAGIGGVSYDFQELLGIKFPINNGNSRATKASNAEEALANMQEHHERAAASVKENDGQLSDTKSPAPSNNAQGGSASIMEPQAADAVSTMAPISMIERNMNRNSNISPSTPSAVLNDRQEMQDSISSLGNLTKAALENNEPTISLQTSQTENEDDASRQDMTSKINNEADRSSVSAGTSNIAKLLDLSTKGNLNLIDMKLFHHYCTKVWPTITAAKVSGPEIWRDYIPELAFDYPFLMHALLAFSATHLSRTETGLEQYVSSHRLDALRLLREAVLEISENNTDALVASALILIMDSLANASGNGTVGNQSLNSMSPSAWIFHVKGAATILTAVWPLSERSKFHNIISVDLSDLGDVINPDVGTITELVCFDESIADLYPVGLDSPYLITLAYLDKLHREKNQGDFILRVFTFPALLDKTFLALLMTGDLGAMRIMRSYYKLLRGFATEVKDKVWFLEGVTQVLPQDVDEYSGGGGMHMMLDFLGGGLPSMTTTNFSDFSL
How it was run: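 Universal all-10-mer Agilent arrays, fresh or stripped once, were converted to double-stranded form by primer extension. GST-tagged yeast transcription factors from PURExpress in vitro transcription/translation, full-length or DNA-binding domain only, were applied at about 100-200 nM and detected with fluorescent anti-GST. After masliner normalisation, the Universal PBM Analysis Suite scored each ungapped eight-base word together with its reverse complement by E-score.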

Row | Sequence | PBM E-score
1 | AGTTAATA | -0.0115
2 | AGACAGCT | -0.258
3 | GGGAAGAA | -0.138
4 | ACACAAGG | -0.231
5 | ATAGGTCG | -0.035
6 | ATCCTGCG | 0.0647
7 | TCCTTCCA | -0.158
8 | CATTATTC | -0.172
9 | CGAAGACC | -0.0395
10 | AGTCGCCA | -0.214
11 | CTCTTAAG | 0.101
12 | ATCCCCGG | -0.103
13 | CTTTGAGC | -0.0943
14 | ATGCCCAT | -0.178
15 | ACTGCACA | -0.125
16 | CATCGTCG | 0.106
17 | ACCTTTCA | -0.0653
18 | GACGATCC | -0.0721
19 | ACGCGGCG | 0.136
20 | CTATGGGA | -0.173
21 | AAGTGCCC | -0.317
22 | AGAACAGC | -0.0576
23 | ATCATAGC | -0.184
24 | GAACTACC | -0.153
25 | GAACACGC | 0.0136

Row | Sequence | PBM E-score
26 | CTGCTGAC | 0.096
27 | CTAATCTA | -0.181
28 | GTCCTAGA | -0.118
29 | TGACGTCA | -0.0522
30 | AAACCATG | -0.00076
31 | TCTTAAGA | -0.0586
32 | AAATCGGG | -0.133
33 | ATATCTAA | 0.0945
34 | CTCGGAGA | -0.0454
35 | GTCAGATA | -0.028
36 | ACGCTCAC | 0.122
37 | GATACAGC | -0.0649
38 | CTGATTGC | -0.17
39 | AAGAGCCT | -0.152
40 | ATGCTAAG | -0.173
41 | AACGTGTG | 0.022
42 | CTCCAATC | -0.0328
43 | GCCCAACC | 0.0505
44 | CAGACACG | 0.00983
45 | ATATTGTC | 0.147
46 | AAGACTCA | -0.172
47 | AGTTGCAA | -0.0411
48 | ACGCACTC | 0.151
49 | AGTAGCAT | -0.0507
50 | AAACTTGA | -0.128

Row | Sequence | PBM E-score
51 | ACTGCCGA | 0.0329
52 | CACACAAC | -0.0306
53 | GCTACAGC | -0.0661
54 | GATTGGCC | -0.177
55 | AAACAGTT | -0.118
56 | GCCCCCCA | -0.328
57 | ACTTTTCT | -0.047
58 | ATGCTGCA | -0.162
59 | AACCCGCT | -0.2
60 | ACTGAATA | 0.0517
61 | AGAGACCA | -0.186
62 | AACGACTA | 0.379
63 | TCCGGCAA | -0.147
64 | CGAGGTAA | 0.196
65 | CTTAGGTA | 0.0508
66 | CAATCACG | 0.00382
67 | TGTAAGAA | 0.0482
68 | AATAATGG | -0.0495
69 | TAACTAGA | -0.0932
70 | CGGTTATC | 0.187
71 | GGTAGATA | 0.0193
72 | ATAAACAG | 0.00269
73 | ACATACGC | 0.281
74 | AAATACTT | -0.0542
75 | GGCGTAAC | 0.0403

Row | Sequence | PBM E-score
76 | ATGATACA | -0.122
77 | ACTGATCC | -0.0846
78 | AACCACCC | -0.147
79 | GACTATAA | -0.036
80 | CTGAAACC | -0.252
81 | AAACAAAT | 0.136
82 | GCAAAACC | -0.128
83 | AATCACAG | -0.117
84 | CAATTACG | 0.107
85 | CTACCGAC | -0.00404
86 | GCCCAGCC | -0.226
87 | AAAACGGT | -0.0721
88 | ATTTTGAC | -0.0644
89 | CGTCCCGA | -0.0164
90 | CCCTAGAA | 0.0251
91 | CAGAACGG | 0.139
92 | ACACGTAT | 0.292
93 | AATAGCCC | -0.202
94 | ATTGGTTA | -0.0342
95 | CGGAAATA | 0.093
96 | AACTGCTT | -0.161
97 | ACGCCGCG | 0.128
98 | TACGCGGA | 0.276
99 | CGAAATTC | 0.0977
100 | AAGTACCT | -0.102

Row | Sequence | PBM E-score
101 | ACGATCAC | 0.268
102 | ATGCTGGC | -0.205
103 | AGAATGTA | -0.0672
104 | CCCGAACA | -0.064
105 | GGTTGCAA | 0.0442
106 | AAGTAAAT | -0.0653
107 | CTGCTTTC | -0.222
108 | ATGGACAC | -0.0352
109 | ACTGAACA | 0.0269
110 | GAGGATAA | -0.0411
111 | TACACATA | 0.144
112 | AGGTAGCG | 0.185
113 | AGGGCTGA | -0.184
114 | AGCAAGAG | -0.203
115 | GCATATGC | 0.0251
116 | ACGCCGGC | -0.00364
117 | CAGGATGC | -0.00933
118 | AAGCATGC | -0.124
119 | AGCTGTGC | -0.0829
120 | GAAAAGAA | -0.00375
121 | AGGGCCGA | -0.0627
122 | CGGTAGCA | -0.131
123 | ACGCGGCA | 0.00542
124 | TCTACGAA | 0.335
125 | TCTGCAGA | -0.0119

Row | Sequence | PBM E-score
126 | ATTTTCCC | -0.172
127 | CGACTAAG | 0.13
128 | GGCACACC | -0.201
129 | GTATTTAA | 0.164
130 | GCCTCGAC | -0.118
131 | ACGTAAGG | 0.091
132 | ACAACCTG | -0.114
133 | ATAGATAT | 0.0103
134 | ATACACCA | -0.0351
135 | AGTGGGAG | -0.286
136 | AGTGTCGC | -0.0581
137 | ATTTGATA | 0.139
138 | AGCATACT | 0.0348
139 | AGATCTAG | -0.249
140 | CCATACTA | -0.101
141 | CTCGTACC | 0.481
142 | CAGAAGCG | 0.0273
143 | CGTGCGGC | -0.0925
144 | GTTTTAAA | 0.153
145 | GCGGGTGA | -0.232
146 | GTGTCCAA | -0.0902
147 | GTAATTAC | 0.0279
148 | ACCGTAGC | 0.115
149 | ACCTCATG | -0.22
150 | GCCGCAGC | -0.159

Row | Sequence | PBM E-score
151 | GGAGAATA | 0.0549
152 | CAGGGAGG | -0.282
153 | CCACGACA | -0.131
154 | ACGCTGGA | 0.0743
155 | CTGTTATC | -0.185
156 | GATATTTA | 0.0883
157 | CGTCAACC | -0.0201
158 | TAGTTGCA | -0.175
159 | CAACGCGA | 0.0946
160 | ACGGACGC | -0.0287
161 | ACCGCGCA | 0.0823
162 | GTTGGCCA | -0.311
163 | GAACGAGA | 0.457
164 | CCACTACG | 0.223
165 | GGTGGGCA | -0.0535
166 | AAACGTCA | 0.192
167 | ATTCGGTC | 0.178
168 | GAGACAGA | -0.0332
169 | ATTGCAGG | -0.0113
170 | TTTACAAA | 0.0763
171 | ATTGAAAT | 0.0382
172 | AGATGGTG | -0.0626
